Experimental data as given in the supplement of paper PMC8728848.
Some of the results follow.

What was measured:
Assay in all cases: glycan array binding signal (z-score within array); higher = stronger binding
Details in all cases: glycan notation: IUPAC condensed, linker removed
[1] = target: Neu5Ac(a2-6)Gal(b1-4)GlcNAc(b1-2)Man(a1-3)[Man(a1-6)]Man(b1-4)GlcNAc(b1-4)GlcNAc
In short: (§1)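 The binding signal is a Z-score computed within each array and averaged over linkers. Arrays of the same protein sequence at different concentrations or buffers were also averaged together. Data originate from 3228 arrays in the Consortium for Functional Glycomics database, kept only where the protein sequence was available.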

[2] = target: Neu5Ac(a2-6)Gal(b1-4)GlcNAc(b1-2)Man(a1-3)[Neu5Ac(a2-3)Gal(b1-4)GlcNAc(b1-2)Man(a1-6)]Man(b1-4)GlcNAc(b1-4)GlcNAc
In short: as §1

[3] = target: Neu5Ac(a2-6)Gal(b1-4)GlcNAc(b1-2)Man(a1-3)[Neu5Ac(a2-6)Gal(b1-4)GlcNAc(b1-2)Man(a1-6)]Man(b1-4)GlcNAc(b1-4)GlcNAc
In short: as §1

[4] = target: Neu5Ac(a2-6)Gal(b1-4)GlcNAc(b1-2)Man(a1-3)[Neu5Ac(a2-6)Gal(b1-4)GlcNAc(b1-2)Man(a1-6)]Man(b1-4)GlcNAc(b1-4)[Fuc(a1-6)]GlcNAc
In short: as §1

[5] = target: Neu5Ac(a2-6)Gal(b1-4)GlcNAc(b1-2)Man(a1-6)Man(b1-4)GlcNAc(b1-4)GlcNAc
In short: as §1

[6] = target: Neu5Ac(a2-6)Gal(b1-4)GlcNAc(b1-2)Man(a1-6)[Gal(b1-4)GlcNAc(b1-2)Man(a1-3)]Man(b1-4)GlcNAc(b1-4)GlcNAc
In short: as §1

[7] = target: Neu5Ac(a2-6)Gal(b1-4)GlcNAc(b1-2)Man(a1-6)[GlcNAc(b1-2)Man(a1-3)]Man(b1-4)GlcNAc(b1-4)GlcNAc
In short: as §1

[8] = target: Neu5Ac(a2-6)Gal(b1-4)GlcNAc(b1-2)Man(a1-6)[Man(a1-3)]Man(b1-4)GlcNAc(b1-4)GlcNAc
In short: as §1

[9] = target: Neu5Ac(a2-6)Gal(b1-4)GlcNAc(b1-2)[Neu5Ac(a2-6)Gal(b1-4)GlcNAc(b1-4)]Man(a1-3)[GlcNAc(b1-4)][Neu5Ac(a2-6)Gal(b1-4)GlcNAc(b1-2)[Neu5Ac(a2-6)Gal(b1-4)GlcNAc(b1-6)]Man(a1-6)]Man(b1-4)GlcNAc(b1-4)GlcNAc
In short: as §1

[10] = target: Neu5Ac(a2-6)Gal(b1-4)GlcNAc(b1-2)[Neu5Ac(a2-6)Gal(b1-4)GlcNAc(b1-4)]Man(a1-3)[GlcNAc(b1-4)][Neu5Ac(a2-6)Gal(b1-4)GlcNAc(b1-4)Man(a1-6)]Man(b1-4)GlcNAc(b1-4)GlcNAc
In short: as §1

[11] = target: Neu5Ac(a2-6)Gal(b1-4)GlcNAc(b1-2)[Neu5Ac(a2-6)Gal(b1-4)GlcNAc(b1-6)]Man(a1-6)[Neu5Ac(a2-6)Gal(b1-4)GlcNAc(b1-2)Man(a1-3)][GlcNAc(b1-4)]Man(b1-4)GlcNAc(b1-4)GlcNAc
In short: as §1

[12] = target: Neu5Ac(a2-6)Gal(b1-4)GlcNAc(b1-3)Gal(b1-3)GlcNAc
In short: as §1

[13] = target: Neu5Ac(a2-6)Gal(b1-4)GlcNAc(b1-3)Gal(b1-4)GlcNAc
In short: as §1

[14] = target: Neu5Ac(a2-6)Gal(b1-4)GlcNAc(b1-3)Gal(b1-4)GlcNAc(b1-2)Man(a1-3)[Neu5Ac(a2-6)Gal(b1-4)GlcNAc(b1-3)Gal(b1-4)GlcNAc(b1-2)Man(a1-6)]GalNAc
In short: as §1

[15] = target: Neu5Ac(a2-6)Gal(b1-4)GlcNAc(b1-3)Gal(b1-4)GlcNAc(b1-3)Gal(b1-4)GlcNAc
In short: as §1

[16] = target: Neu5Ac(a2-6)Gal(b1-4)GlcNAc(b1-3)Gal(b1-4)GlcNAc(b1-3)Gal(b1-4)GlcNAc(b1-2)Man(a1-3)[Neu5Ac(a2-6)Gal(b1-4)GlcNAc(b1-3)Gal(b1-4)GlcNAc(b1-3)Gal(b1-4)GlcNAc(b1-2)Man(a1-6)]GalNAc
In short: as §1

[17] = target: Neu5Ac(a2-6)Gal(b1-4)GlcNAc(b1-3)Gal(b1-4)GlcNAc(b1-3)GalNAc
In short: as §1

[18] = target: Neu5Ac(a2-6)Gal(b1-4)GlcNAc(b1-3)Gal(b1-4)GlcNAc(b1-3)[Neu5Ac(a2-6)Gal(b1-4)GlcNAc(b1-3)Gal(b1-4)GlcNAc(b1-6)]GalNAc
In short: as §1

[19] = target: Neu5Ac(a2-6)Gal(b1-4)GlcNAc(b1-3)Gal(b1-4)GlcNAc(b1-6)[Gal(b1-3)]GalNAc
In short: as §1

[20] = target: Neu5Ac(a2-6)Gal(b1-4)GlcNAc(b1-3)Gal(b1-4)[Fuc(a1-3)]GlcNAc(b1-3)Gal(b1-4)[Fuc(a1-3)]GlcNAc
In short: as §1

[21] = target: Neu5Ac(a2-6)Gal(b1-4)GlcNAc(b1-3)GalNAc
In short: as §1

[22] = target: Neu5Ac(a2-6)Gal(b1-4)GlcNAc(b1-3)[Neu5Ac(a2-6)Gal(b1-4)GlcNAc(b1-6)]GalNAc
In short: as §1

[23] = target: Neu5Ac(a2-6)Gal(b1-4)GlcNAc(b1-6)GalNAc
In short: as §1

[24] = target: Neu5Ac(a2-6)Gal(b1-4)GlcNAc(b1-6)[Gal(b1-3)GlcNAc(b1-3)]Gal(b1-4)Glc
In short: as §1

[25] = target: Neu5Ac(a2-6)Gal(b1-4)GlcNAc(b1-6)[Gal(b1-3)]GalNAc
In short: as §1

[26] = target: Neu5Ac(a2-6)Gal(b1-4)GlcNAc6S
In short: as §1

Neu5Ac(a2-6)GalNAc = target: Neu5Ac(a2-6)GalNAc
In short: as §1

[27] = target: Neu5Ac(a2-6)GalNAc(b1-4)GlcNAc
In short: as §1

[28] = target: Neu5Ac(a2-6)GalNAc(b1-4)GlcNAc6S
In short: as §1

[29] = target: Neu5Ac(a2-6)GlcNAc(b1-4)GlcNAc
In short: as §1

[30] = target: Neu5Ac(a2-6)GlcNAc(b1-4)GlcNAc(b1-4)GlcNAc
In short: as §1

B1: SialidaseA (Arthrobacter ureafaciens) (protein)
chain: MRSNSTSAPSLVRRAATGVLTCAVSIGLLAGLGLPAQAAPTPPNSPTLPPGSFSETNLAADRTAANFFYRIPALTYLGNDVVLAAWDGRPGSAADAPNPNSIVQRRSTDGGKTWGPVQVIAAGHVADASGPRYGYSDPSYIYDAEANKVFAFFVYSKDQGFGGSQFGNDDADRNVISSAVIESSDAGVTWSQPRLITSVTKPGTSKTNPAAGDVRSNFASSGEGIQLKYGPHKGRLIQQYAGDVRQADGSNKIQAYSVYSDDHGVTWHKGANVGDRMDENKTVELSDGRVLLNSRDNANRGYRKVAVSTDGGATYGPVSQDTELPDPANNGAIARMFPNAAQGSADAKKLIFTNANSKTGRENVSARVSCDDGETWPGVRTIRSGFSAYSTVTRLADGKFGVLYEGNYTDNMPFATFDDAWLNYVCAPLAVPAVNIAPSATQEVPVTVTNQEATTLSGATATVYTPSGWSATTVPVPDVAPGASVTVTVALTAPADASGPRSLNAAFTTADGRVSQFTFTATTPVAPQVGLTITGSAPARDVAANPYQAGDVLGYTLNVKSTANVAANSVPLTGTFDSGFLPPAAPNCRYNNLAAGASYNCTTAKHTITAADMERGYFVPEATFSITSTTTPSLTKTVQFTGAAVALRDGLISADISGARTDVGRDLATRPYAAGELVPYAFTVKNTSPFVEQVVPTAGNFSPFLPAGAGNCRYLSLPAGQSYECATPRHAVTAEEVEQGFFVPDTTWEVSAAGQSTRTYRINGGEVDLLVRDAALSATVVAEWKDADGDRFASAGDPVTFTYTVGNAGNVALTGLEAPDAGISLPFLAPGDTATATREHVLTAADVAGGSLAASAFEATARNGSKEVTATAEGQPLELKVQPAQPSKEPELTVQDLEDQTPPFDLGTAFKYRTGQKVSLAGLEYGQWYYVYLNKTGYRLGWMFPTTGDTVEFILPPEVRNGRDDVVVLDKDGRRVSFDRLQVTPKGEKI
glycan array binding signal (z-score) [1]: 3.4 | glycan array binding signal (z-score) [2]: 2.86 | glycan array binding signal (z-score) [3]: 2.6 | glycan array binding signal (z-score) [4]: 3.44 | glycan array binding signal (z-score) [5]: 3.28 | glycan array binding signal (z-score) [6]: 3.95 | glycan array binding signal (z-score) [7]: 3.32 | glycan array binding signal (z-score) [8]: 3.29 | glycan array binding signal (z-score) [9]: 1.28 | glycan array binding signal (z-score) [10]: 2.78 | glycan array binding signal (z-score) [11]: 1.69 | glycan array binding signal (z-score) [12]: 0.845 | glycan array binding signal (z-score) [13]: 2.72 | glycan array binding signal (z-score) [14]: 2.72 | glycan array binding signal (z-score) [15]: 1.73 | glycan array binding signal (z-score) [16]: 2.69 | glycan array binding signal (z-score) [17]: 2.26 | glycan array binding signal (z-score) [18]: 3.49 | glycan array binding signal (z-score) [19]: 3.09 | glycan array binding signal (z-score) [20]: 3.65 | glycan array binding signal (z-score) [21]: 1.06 | glycan array binding signal (z-score) [22]: 3.9 | glycan array binding signal (z-score) [23]: -0.534 | glycan array binding signal (z-score) [24]: -0.514 | glycan array binding signal (z-score) [25]: 2.04 | glycan array binding signal (z-score) [26]: 2.34 | glycan array binding signal (z-score) (Neu5Ac(a2-6)GalNAc): 1.1 | glycan array binding signal (z-score) [27]: 0.64 | glycan array binding signal (z-score) [28]: 1.49 | glycan array binding signal (z-score) [29]: 1.43 | glycan array binding signal (z-score) [30]: -0.274
